Results from article PMC4336329 (PLoS ONE, 2015).
Hit rate of the full screen: of about 310,000 compounds, about 14,000 (4.5%) showed an effect of 50% or more. Effects have a minus sign here. Some of the results follow.

What follows are compounds tested against human ether-à-go-go-related gene (hERG) potassium channel (human, UniProt Q12809) (assay: primary screen, population patch clamp on CHO cells stably expressing hERG).
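Further: peak tail current of the secondary pulse compared with the same well before compound.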

human ether-à-go-go-related gene (hERG) potassium channel, sequence (Q12809 whole entry, looked up): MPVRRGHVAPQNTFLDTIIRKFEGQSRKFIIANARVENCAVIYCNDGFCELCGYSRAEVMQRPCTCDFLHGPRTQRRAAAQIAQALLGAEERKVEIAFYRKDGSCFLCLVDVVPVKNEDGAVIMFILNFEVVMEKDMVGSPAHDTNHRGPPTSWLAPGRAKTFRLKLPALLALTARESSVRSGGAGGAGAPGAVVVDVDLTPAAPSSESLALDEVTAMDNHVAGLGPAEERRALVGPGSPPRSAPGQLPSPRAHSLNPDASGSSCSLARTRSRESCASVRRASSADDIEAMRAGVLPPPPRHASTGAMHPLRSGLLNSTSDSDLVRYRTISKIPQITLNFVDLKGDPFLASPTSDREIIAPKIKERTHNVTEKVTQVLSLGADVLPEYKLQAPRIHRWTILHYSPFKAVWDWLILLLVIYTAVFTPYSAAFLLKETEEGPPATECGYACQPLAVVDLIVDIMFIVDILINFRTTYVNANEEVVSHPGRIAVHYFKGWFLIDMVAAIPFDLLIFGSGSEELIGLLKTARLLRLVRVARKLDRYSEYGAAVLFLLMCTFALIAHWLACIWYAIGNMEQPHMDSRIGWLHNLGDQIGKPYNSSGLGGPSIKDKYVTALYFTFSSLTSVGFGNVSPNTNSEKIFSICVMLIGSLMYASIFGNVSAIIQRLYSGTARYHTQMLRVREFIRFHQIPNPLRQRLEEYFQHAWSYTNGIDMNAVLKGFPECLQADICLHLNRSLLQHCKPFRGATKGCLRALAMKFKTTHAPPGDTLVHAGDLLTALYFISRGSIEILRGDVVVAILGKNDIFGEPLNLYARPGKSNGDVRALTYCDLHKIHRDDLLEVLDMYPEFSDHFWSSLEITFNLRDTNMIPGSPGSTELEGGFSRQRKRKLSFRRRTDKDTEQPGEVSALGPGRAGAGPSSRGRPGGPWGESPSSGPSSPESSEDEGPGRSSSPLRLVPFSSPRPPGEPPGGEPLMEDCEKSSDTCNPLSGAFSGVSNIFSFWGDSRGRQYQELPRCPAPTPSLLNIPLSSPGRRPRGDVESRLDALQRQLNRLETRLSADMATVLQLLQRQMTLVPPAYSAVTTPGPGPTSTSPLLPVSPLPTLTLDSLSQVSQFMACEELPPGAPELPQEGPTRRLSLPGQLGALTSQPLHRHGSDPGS

Going from `CN1CCN(c2ccc(C(=O)c3ccc(F)cc3)cc2)CC1` to `COc1ccc(N2CCN(C(=O)C3CCCN(S(=O)(=O)c4cccc5cccnc45)C3)CC2)cc1` (stereo not drawn), the “hERG current change (%, negative = inhibition) at 10uM” value rises from -34.9% to -32.1%.

First: Cc1ccc(NS(=O)(=O)c2ccc3oc(=O)ccc3c2)cc1Cl
Second: Cc1cccc(NS(=O)(=O)c2cc(C(=O)N3CCCC3)ccc2Cl)c1
The “hERG current change (%, negative = inhibition) at 10uM” value of the first is higher: 3.79% for the first, -4.21% for the second.

Going from `CCN(CC)C(=O)CN(c1cc(Cl)ccc1OC)S(C)(=O)=O` to `CCCCN(C(=O)NC(=O)Nc1nc2ccc(OC)cc2s1)S(C)(=O)=O`, the “hERG current change (%, negative = inhibition) at 10uM” value rises from 5.63% to 20.3%.

Compared with `CCc1nnc(NC(=O)NC(C)(C)C)s1`, `CCNc1nc(NC(C)C)nc(N(C#N)C(C)C(=O)N(C)C)n1` (stereo not drawn) is lower in “hERG current change (%, negative = inhibition) at 10uM” value: 9.22% for the first, 6.85% for the second.

Going from `COc1ccccc1-n1c(SCC(=O)Nc2cccc3ccccc23)nc(O)cc1=O` to `COc1ccc(NC(=O)CSc2nc3c(c(=O)n2-c2ccccc2OC)SCC3)cc1`, the “hERG current change (%, negative = inhibition) at 10uM” value falls from 5.56% to -5.73%.

Going from `Cc1ccc(N2C(=O)C3C(C(=O)c4ccccc4)=NN(c4ccccc4)C3C2=O)cc1` (stereo not drawn) to `Cc1ccc(N2C(=O)[C@@H]3C(C(=O)CCN4C(=O)c5ccccc5C4=O)=NN[C@@H]3C2=O)cc1`, the “hERG current change (%, negative = inhibition) at 10uM” value rises from -5.36% to 3.3%.

Going from `CCOP(=O)(OCC)/C(C#N)=C/c1ccc([N+](=O)[O-])cc1` to `CCCc1cc(=O)[nH]c(SCC(=O)Nc2ccc([N+](=O)[O-])cc2C#N)n1`, the “hERG current change (%, negative = inhibition) at 10uM” value rises from -33.1% to -29.3%.

Compared with `O=C(CSc1n[nH]c(-c2ccccc2)n1)NC(=O)NCc1ccco1`, `O=C(CSc1nnc(CNC(=O)c2ccccc2F)o1)NCc1ccco1` is higher in “hERG current change (%, negative = inhibition) at 10uM” value: -14% for the first, 8.92% for the second.

First: C=CCn1c(-c2ccc(S(=O)(=O)N3CCOCC3)cc2)csc1=Nc1ccccc1
Second: CN(CCOc1ccccc1)C(=O)c1cc([N+](=O)[O-])ccc1N1CCOCC1
The “hERG current change (%, negative = inhibition) at 10uM” value of the first is higher: 0.308% for the first, -27.3% for the second.

Compared with `CNC(=O)CN1C(=O)CSc2nc(C)cc(C)c21`, `Cc1cc(C)n(C(=O)c2cc3c(s2)CCCC3)n1` is lower in “hERG current change (%, negative = inhibition) at 10uM” value: 2.26% for the first, 0.691% for the second.

Compared with `CCOC(=O)c1c(NC(=O)c2nn(CC)cc2Br)c(C#N)cn1-c1ccccc1`, `COc1ccccc1-n1c(C)nnc1SCC(=O)Nc1cc(C)cc(C)c1` is higher in “hERG current change (%, negative = inhibition) at 10uM” value: -5.82% for the first, -3.62% for the second.

Going from `CCCC(O)(c1ccc(OC)cc1)C(CN1CCOCC1)c1ccccc1` (stereo not drawn) to `COc1ccccc1NC(=S)N1CCN(Cc2ccccc2)CC1`, the “hERG current change (%, negative = inhibition) at 10uM” value rises from -7.61% to 6.91%.

First: COc1ccc(C=O)cc1Cn1c(C)cc(C)c(C#N)c1=O
Second: COc1cccc2c(=O)cc(C)n(CC(=O)Nc3ccc(Br)cc3)c12
The “hERG current change (%, negative = inhibition) at 10uM” value of the first is lower: 4.1% for the first, 12.8% for the second.

Compared with `CC(c1ccccc1)N1C(=O)CC(Sc2ncccc2C(=O)O)C1=O` (stereo not drawn), `Cn1c(=O)c2ccccc2n(Cc2ccccc2F)c1=O` is lower in “hERG current change (%, negative = inhibition) at 10uM” value: 11% for the first, 6.5% for the second.

Compared with `CN(c1ccccc1)S(=O)(=O)c1cccc(NC(=O)c2cc(=O)c3ccccc3o2)c1`, `N#CCCN(C(=O)COC(=O)CNS(=O)(=O)c1ccc2ccccc2c1)c1ccccc1` is lower in “hERG current change (%, negative = inhibition) at 10uM” value: 11.7% for the first, -3.85% for the second.

First: CC1CCCN(CCCNC(=O)c2ccc3c(c2)N(Cc2ccc(F)cc2)C(=O)c2ccccc2S3=O)C1 (stereo not drawn)
Second: COc1cc(C(=O)N/N=C/c2cn(Cc3ccccc3)c3ccccc23)ccc1O
The “hERG current change (%, negative = inhibition) at 10uM” value of the first is lower: -32.9% for the first, -1.08% for the second.

Going from `Cc1ccc2nc(-c3ccc(Br)o3)oc(=O)c2c1` to `Cc1ccc(-c2csc3nc(C)n(N)c(=O)c23)cc1`, the “hERG current change (%, negative = inhibition) at 10uM” value rises from -10.1% to 9.92%.

Compared with `CCOc1ccc(Cl)cc1S(=O)(=O)N1CCC(C(=O)NCc2ccccn2)CC1`, `CCc1ccccc1NC(=O)C1CCN(c2cnccn2)CC1` is higher in “hERG current change (%, negative = inhibition) at 10uM” value: -12.3% for the first, 4.06% for the second.

Compared with `N#Cc1nc(-c2ccccc2)oc1NCCCn1ccnc1`, `CC1(c2nnc(Cc3ccccc3)o2)CC(c2ccncc2)=NO1` (stereo not drawn) is higher in “hERG current change (%, negative = inhibition) at 10uM” value: -27.5% for the first, 2.48% for the second.

Going from `COc1cc(OC)cc(C(=O)NNC(=S)NCc2ccco2)c1` to `CCn1c2ccccc2c2cc(NC(=O)c3cc(OC)cc(OC)c3)ccc21`, the “hERG current change (%, negative = inhibition) at 10uM” value rises from -4.66% to -0.116%.

First: COc1ccc(C2=NN(C3=NN=C(N)Cc4ncnn43)C(O)(C(F)(F)F)C2)cc1 (stereo not drawn)
Second: COc1cccc(-c2cn(-c3cccc(C(F)(F)F)c3)c(=S)[nH]2)c1
The “hERG current change (%, negative = inhibition) at 10uM” value of the first is lower: 13.8% for the first, 20.4% for the second.

First: Nc1nnc(SCC(=O)Nc2cc(S(=O)(=O)N3CCOCC3)ccc2N2CCCC2)s1
Second: CC(C)CC(=O)N1CCN(S(=O)(=O)c2ccc(F)cc2)CC1
The “hERG current change (%, negative = inhibition) at 10uM” value of the first is higher: -1.6% for the first, -1.89% for the second.

First: COc1ccc(S(=O)(=O)N2CCC(C)CC2)cc1OC
Second: COc1ccc(S(=O)(=O)Nc2cc(C(C)C)c(O)cc2C)cc1
The “hERG current change (%, negative = inhibition) at 10uM” value of the first is higher: 2.09% for the first, -2.38% for the second.

Compared with `OC(c1ccc(Cl)cc1)C(O)c1nc2ccccc2[nH]1` (stereo not drawn), `CC1=C(C(=O)Nc2ccc(Cl)cc2)C(c2ccncc2)C(C#N)=C(SCC(N)=O)N1` (stereo not drawn) is higher in “hERG current change (%, negative = inhibition) at 10uM” value: -2.47% for the first, 4.33% for the second.

Compared with `O=C(COC(=O)c1ccccc1O)NCCCc1ccccc1`, `O=S(=O)(NC(=S)c1ccccc1)c1ccc(F)cc1` is lower in “hERG current change (%, negative = inhibition) at 10uM” value: 19.6% for the first, 16.5% for the second.

Going from `CC12CN3CC(C)(CN(C1)C3c1ccc(Cl)cc1Cl)C2O` (stereo not drawn) to `Cc1ccc(Cl)cc1N1CCN(C(=O)c2ccc(NC3=NC4CS(=O)(=O)CC4S3)cc2)CC1` (stereo not drawn), the “hERG current change (%, negative = inhibition) at 10uM” value rises from 2.66% to 6.77%.

First: O=C(c1ccc2c(c1)OCO2)N1CCC(Cc2ccccc2)CC1
Second: O=C(CCS(=O)(=O)c1ccccc1)N1CCN(c2cccc(C(F)(F)F)c2)CC1
The “hERG current change (%, negative = inhibition) at 10uM” value of the first is higher: -8.66% for the first, -43.1% for the second.

Going from `CCOc1ccc(N(CC)S(=O)(=O)c2c(C)[nH]c(=O)[nH]c2=O)cc1` to `CCOc1ccc(-n2c(=S)sc3c(=O)[nH]c(SCC(=O)NC(C)CC)nc32)cc1` (stereo not drawn), the “hERG current change (%, negative = inhibition) at 10uM” value rises from 14% to 17.5%.

Compared with `CCn1nc(C)c(CNC(=O)CCc2nnc(Cc3c[nH]c4ccccc34)o2)c1C`, `O=C(CCc1nnc(C2(c3ccc(Cl)cc3)CCC2)o1)NCCCn1cccn1` is lower in “hERG current change (%, negative = inhibition) at 10uM” value: 42% for the first, -5.52% for the second.

First: Cc1cc(C)cc(N=c2c([N+](=O)[O-])nn(-c3cccc(Cl)c3)n2O)c1
Second: Cc1cc(C)n2nc(SCC(=O)N3CCc4ccccc43)nc2n1
The “hERG current change (%, negative = inhibition) at 10uM” value of the first is lower: -6.03% for the first, -3.06% for the second.

Going from `O=C(Nc1ccccc1C(F)(F)F)NC1CCCCC1` to `O=C(NC1CCCCC1)c1cc(-c2ccc(O)cc2)on1`, the “hERG current change (%, negative = inhibition) at 10uM” value rises from -4.88% to 0.886%.

Going from `CC(=O)NC(=C(Cl)Cl)S(=O)(=O)c1ccccc1` to `COc1ccc(NS(=O)(=O)c2ccc(N3CC(O)=C(c4ccccc4)C3=N)cc2)cc1`, the “hERG current change (%, negative = inhibition) at 10uM” value falls from 23.9% to 2.86%.

Going from `CC1CCCCN1C(=O)CN1C(=O)NC2(CCCCC2C)C1=O` (stereo not drawn) to `C1CCC2CCCCC2C1` (stereo not drawn), the “hERG current change (%, negative = inhibition) at 10uM” value rises from 12.1% to 26.3%.

First: O=C(CSc1nnc(-c2ccc(O)cc2)n1Cc1ccco1)c1cccs1
Second: Cc1ccc(Oc2coc3cc(O)ccc3c2=O)cc1
The “hERG current change (%, negative = inhibition) at 10uM” value of the first is lower: -14.9% for the first, 12.7% for the second.

Compared with `O=C(NN1C(=O)C2C3CCC(O3)C2C1=O)c1ccc(Br)o1` (stereo not drawn), `COc1ccc(-n2c(=O)[nH]cc(C(=O)Nc3ccc4c(c3)OCCO4)c2=O)cc1` is higher in “hERG current change (%, negative = inhibition) at 10uM” value: -5.06% for the first, 8.51% for the second.

Compared with `CNC(=O)c1ccc(NC(=O)/C=C/c2cccc(F)c2)cc1`, `CC(C)CC(=O)Nc1ccc(-c2cn3cccnc3n2)cc1` is higher in “hERG current change (%, negative = inhibition) at 10uM” value: -18.3% for the first, 26.3% for the second.

Compared with `CNC(=O)c1c(NC(=O)C2=COCCO2)sc2c1CCN(C(=O)OC)C2`, `CCOC(=O)c1c(-c2ccc(C)o2)csc1NC(=O)CN1CCN(CC)CC1` is lower in “hERG current change (%, negative = inhibition) at 10uM” value: -3.53% for the first, -43.5% for the second.

Going from `N#Cc1ccccc1Cn1cc(/C=N/Nc2ccc([N+](=O)[O-])cn2)c2ccccc21` to `c1ccc(-c2nc(CSc3n[nH]c(-c4cccs4)n3)cs2)cc1`, the “hERG current change (%, negative = inhibition) at 10uM” value falls from 7.73% to -15.1%.

Going from `CN(C)S(=O)(=O)c1cccc2nsnc12` to `COc1ccccc1Nc1nc(C)cc(C)n1`, the “hERG current change (%, negative = inhibition) at 10uM” value falls from 34.9% to 13.3%.

First: CC(C)(C)c1n[nH]c2c1CCCC2
Second: O=C(CNC(=O)c1ccccc1F)OCC(=O)N1CCCCC1
The “hERG current change (%, negative = inhibition) at 10uM” value of the first is lower: 3.89% for the first, 4.46% for the second.

Compared with `Brc1ccc(CN2CCN(c3ccccn3)CC2)s1`, `Cc1cc(N2CCOCC2)n2nc(C)c(-c3ccccc3)c2n1` is higher in “hERG current change (%, negative = inhibition) at 10uM” value: -5.6% for the first, 9.17% for the second.

Compared with `CCNC(=S)N1CCN(C(=O)c2ccco2)CC1`, `CC(C)c1ccc(C2CC(=O)c3cnc(NC(=O)c4ccco4)nc3C2)cc1` (stereo not drawn) is lower in “hERG current change (%, negative = inhibition) at 10uM” value: 5.8% for the first, -2.44% for the second.

Compared with `C=CCOc1ccccc1C1C2=C(CC(C)(C)CC2=O)Nc2c1c(=O)n(C)c(=O)n2C` (stereo not drawn), `COC/C=C/C1=CC2=CC(=O)C(C)(OC(=O)c3cccs3)C(=O)C2=CO1` (stereo not drawn) is higher in “hERG current change (%, negative = inhibition) at 10uM” value: -3.8% for the first, 21.2% for the second.

First: Nc1nc(SCc2c(Cl)cccc2Cl)n[nH]1
Second: Cc1ccnc(NC(=O)c2ccc(Cl)s2)c1
The “hERG current change (%, negative = inhibition) at 10uM” value of the first is lower: 11.4% for the first, 11.6% for the second.

First: O=C(COc1ccc(Br)cc1)N(Cc1ccco1)C1CCS(=O)(=O)C1 (stereo not drawn)
Second: C=C(Cl)CSC(=S)N(CC)CC
The “hERG current change (%, negative = inhibition) at 10uM” value of the first is lower: -50.6% for the first, 12.1% for the second.
